The supplement of paper PMC8728848
The list shows a part of the results.

Columns and labels:
Assay in all cases: glycan array binding signal (z-score within array); higher = stronger binding
Conditions in all cases: glycan notation: IUPAC condensed, linker removed
[1] = target: Gal(b1-4)GlcNAc(b1-3)Gal(b1-4)GlcNAc(b1-3)[Gal(b1-4)GlcNAc(b1-3)Gal(b1-4)GlcNAc(b1-6)]GalNAc
Procedure, shortened: (§1)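 Arrays were curated from the Consortium for Functional Glycomics database, 3228 in total, and kept only where the protein sequence was available. Binding is expressed as a within-array Z-score. This score was averaged across arrays of the same protein sequence at different concentrations or buffers and across linkers, and negative values can be read as non-binding.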

[2] = target: Gal(b1-4)GlcNAc(b1-3)Gal(b1-4)GlcNAc(b1-6)[Gal(b1-3)]GalNAc
Procedure, shortened: as §1

[3] = target: Gal(b1-4)GlcNAc(b1-3)Gal(b1-4)[Fuc(a1-3)]GlcNAc(b1-3)Gal(b1-4)[Fuc(a1-3)]GlcNAc
Procedure, shortened: as §1

[4] = target: Gal(b1-4)GlcNAc(b1-3)GalNAc
Procedure, shortened: as §1

[5] = target: Gal(b1-4)GlcNAc(b1-3)[Fuc(a1-3)GlcNAc(b1-6)]Gal(b1-4)Glc
Procedure, shortened: as §1

[6] = target: Gal(b1-4)GlcNAc(b1-3)[Gal(b1-4)GlcNAc(b1-6)]Gal(b1-4)GlcNAc
Procedure, shortened: as §1

[7] = target: Gal(b1-4)GlcNAc(b1-3)[GlcNAc(b1-6)]Gal(b1-4)GlcNAc
Procedure, shortened: as §1

[8] = target: Gal(b1-4)GlcNAc(b1-6)Gal(b1-4)GlcNAc
Procedure, shortened: as §1

[9] = target: Gal(b1-4)GlcNAc(b1-6)GalNAc
Procedure, shortened: as §1

[10] = target: Gal(b1-4)GlcNAc(b1-6)[Gal(b1-3)]GalNAc
Procedure, shortened: as §1

[11] = target: Gal(b1-4)GlcNAc(b1-6)[Gal(b1-4)GlcNAc(b1-3)]GalNAc
Procedure, shortened: as §1

Gal(b1-4)GlcNAc6P = target: Gal(b1-4)GlcNAc6P
Procedure, shortened: as §1

Gal(b1-6)Gal = target: Gal(b1-6)Gal
Procedure, shortened: as §1

Gal3S(b1-3)GalNAc = target: Gal3S(b1-3)GalNAc
Procedure, shortened: as §1

Gal3S(b1-3)GlcNAc = target: Gal3S(b1-3)GlcNAc
Procedure, shortened: as §1

[12] = target: Gal3S(b1-3)[Fuc(a1-4)]GlcNAc
Procedure, shortened: as §1

Gal3S(b1-4)Glc = target: Gal3S(b1-4)Glc
Procedure, shortened: as §1

Gal3S(b1-4)Glc6S = target: Gal3S(b1-4)Glc6S
Procedure, shortened: as §1

Gal3S(b1-4)GlcNAc = target: Gal3S(b1-4)GlcNAc
Procedure, shortened: as §1

[13] = target: Gal3S(b1-4)[Fuc(a1-3)]Glc6S
Procedure, shortened: as §1

[14] = target: Gal3S(b1-4)[Fuc(a1-3)]GlcNAc
Procedure, shortened: as §1

[15] = target: Gal3S(b1-4)[Fuc(a1-3)]GlcNAc6S
Procedure, shortened: as §1

Gal3S4S(b1-4)GlcNAc = target: Gal3S4S(b1-4)GlcNAc
Procedure, shortened: as §1

Gal3S6S(b1-4)GlcNAc = target: Gal3S6S(b1-4)GlcNAc
Procedure, shortened: as §1

Gal3S6S(b1-4)GlcNAc6S = target: Gal3S6S(b1-4)GlcNAc6S
Procedure, shortened: as §1

Gal4S(b1-4)GlcNAc = target: Gal4S(b1-4)GlcNAc
Procedure, shortened: as §1

Gal4S6S(b1-4)GlcNAc = target: Gal4S6S(b1-4)GlcNAc
Procedure, shortened: as §1

Gal6P(b1-4)GlcNAc = target: Gal6P(b1-4)GlcNAc
Procedure, shortened: as §1

Gal6S(b1-3)GlcNAc = target: Gal6S(b1-3)GlcNAc
Procedure, shortened: as §1

Gal6S(b1-3)GlcNAc6S = target: Gal6S(b1-3)GlcNAc6S
Procedure, shortened: as §1

Gal6S(b1-4)Glc = target: Gal6S(b1-4)Glc
Procedure, shortened: as §1

Gal6S(b1-4)Glc6S = target: Gal6S(b1-4)Glc6S
Procedure, shortened: as §1

Gal6S(b1-4)GlcNAc = target: Gal6S(b1-4)GlcNAc
Procedure, shortened: as §1

Gal6S(b1-4)GlcNAc6S = target: Gal6S(b1-4)GlcNAc6S
Procedure, shortened: as §1

GalNAc(a1-3)Gal = target: GalNAc(a1-3)Gal
Procedure, shortened: as §1

GalNAc(a1-3)GalNAc = target: GalNAc(a1-3)GalNAc
Procedure, shortened: as §1

[16] = target: GalNAc(a1-3)GalNAc(b1-3)Gal(a1-4)Gal(b1-4)Glc
Procedure, shortened: as §1

B1: MGL2 (Mus musculus), Q8JZN1 (protein)
chain: MTMRYENFQNLEREEKNQEMRNGDKKGGMESPKFALIPSQSFLWRILSWTHLLLFSLGLSLLLLVVISVIGSQNSQLRRDLGTLRAILDNTTSKIKAEFQSLDSRADNFEKGISSLKVDVEDHRQELQAGRDLSQKVTSLESTLEKREQALKTDLSDLTDHVQQLETDLKALTCQLANLKNNGSEVACCPLHWTEHEGSCYWFSESEKSWPEADKYCRLENSHLVVVNSLEEQNFLQNRLANVLSWMGLTDQNGPWRWVDGTDFDKGFKNWRPLQPDNWHGHMLGGGEDCAHFSYDGRWNDDVCQRHYHWICETELGKASSAHSPQLIASVP
[1]
  glycan array binding signal (z-score): 0.385
[2]
  glycan array binding signal (z-score): 0.248
[3]
  glycan array binding signal (z-score): -0.1
[4]
  glycan array binding signal (z-score): -0.178
[5]
  glycan array binding signal (z-score): -0.109
[6]
  glycan array binding signal (z-score): -0.197
[7]
  glycan array binding signal (z-score): -0.273
[8]
  glycan array binding signal (z-score): -0.272
[9]
  glycan array binding signal (z-score): 3.5
[10]
  glycan array binding signal (z-score): 0.062
[11]
  glycan array binding signal (z-score): -0.133
Gal(b1-4)GlcNAc6P
  glycan array binding signal (z-score): -0.143
Gal(b1-6)Gal
  glycan array binding signal (z-score): -0.238
Gal3S(b1-3)GalNAc
  glycan array binding signal (z-score): -0.199
Gal3S(b1-3)GlcNAc
  glycan array binding signal (z-score): -0.197
[12]
  glycan array binding signal (z-score): -0.046
Gal3S(b1-4)Glc
  glycan array binding signal (z-score): -0.22
Gal3S(b1-4)Glc6S
  glycan array binding signal (z-score): -0.033
Gal3S(b1-4)GlcNAc
  glycan array binding signal (z-score): -0.175
[13]
  glycan array binding signal (z-score): -0.145
[14]
  glycan array binding signal (z-score): -0.228
[15]
  glycan array binding signal (z-score): -0.176
Gal3S4S(b1-4)GlcNAc
  glycan array binding signal (z-score): -0.184
Gal3S6S(b1-4)GlcNAc
  glycan array binding signal (z-score): -0.192
Gal3S6S(b1-4)GlcNAc6S
  glycan array binding signal (z-score): -0.099
Gal4S(b1-4)GlcNAc
  glycan array binding signal (z-score): -0.134
Gal4S6S(b1-4)GlcNAc
  glycan array binding signal (z-score): -0.093
Gal6P(b1-4)GlcNAc
  glycan array binding signal (z-score): -0.323
Gal6S(b1-3)GlcNAc
  glycan array binding signal (z-score): -0.151
Gal6S(b1-3)GlcNAc6S
  glycan array binding signal (z-score): -0.13
Gal6S(b1-4)Glc
  glycan array binding signal (z-score): -0.238
Gal6S(b1-4)Glc6S
  glycan array binding signal (z-score): -0.127
Gal6S(b1-4)GlcNAc
  glycan array binding signal (z-score): -0.276
Gal6S(b1-4)GlcNAc6S
  glycan array binding signal (z-score): -0.203
GalNAc(a1-3)Gal
  glycan array binding signal (z-score): 1.48
GalNAc(a1-3)GalNAc
  glycan array binding signal (z-score): -0.176
[16]
  glycan array binding signal (z-score): -0.259
